Data from paper PMC11995724, “Antibiotic target discovery by integrated phenotypic and activity-based profiling of electrophilic fragments” (Cell chemical biology, 2025).
Out of some 3,200 compounds screened, about 75 (2%) showed an effect of 50% or more. The list shows a part of the results.

Each molecule was assayed on T1, S. aureus MSSA476. Settings: relative growth, OD600, TSB; 25 µM; inhibitor.
T1 construct: MSSA476
Design: species or system S. aureus MSSA476 (TSB) or V. cholerae SAD30 (LB); 384-well bacterial growth screen at 25 uM, OD600 relative to DMSO control

Row | SMILES | % of control remaining [%]
1 | C=CC(=O)N(Cc1cccc2ccoc12)C1CCSCC1 [1-D04, N-[(1-benzofuran-7-yl)methyl]-N-(thian-4-yl)prop-2-enamide] | 80.8791
2 | CN(C)c1ccc(C=C(C#N)C(=O)NCc2ccco2)cc1 [9-D10, 2-cyano-3-[4-(dimethylamino)phenyl]-N-[(furan-2-yl)methyl]prop-2-enamide] | 96.779
3 | O=C(CCl)Cc1cccc(F)c1F [10-K17, 1-chloro-3-(2,3-difluorophenyl)propan-2-one] | 103.125
4 | C=CC(=O)Nc1ccnc(OC2CCCCC2)c1 [2-A04, N-[2-(cyclohexyloxy)pyridin-4-yl]prop-2-enamide] | 148.651
5 | O=C(CCl)Nc1ccc(N=Nc2ccccc2)cc1 [4-C11, 2-chloro-N-[4-(2-phenyldiazen-1-yl)phenyl]acetamide] | 86.5174
6 | C=CC(=O)N(Cc1ccc(=O)n(C)c1)C1CCCc2ccccc21 (centres unmarked) [1-B17, N-[(1-methyl-6-oxo-1,6-dihydropyridin-3-yl)methyl]-N-(1,2,3,4-tetrahydronaphthalen-1-yl)prop-2-enamide] | 111.824
7 | COC(=O)c1cc(C(=O)CCl)c(C)o1 [10-G13, methyl 4-(2-chloroacetyl)-5-methylfuran-2-carboxylate] | 140.625
8 | C=CC(=O)NCCCn1cnc2c1CCCC2 [3-K20, N-[3-(4,5,6,7-tetrahydro-1H-1,3-benzodiazol-1-yl)propyl]prop-2-enamide] | 90.2046
9 | C=CC(=O)N1CCC(C(=O)N[C@@H]2C[C@H]2c2ccc(Cl)c(F)c2)CC1 [3-B14, N-[(1R,2S)-2-(4-chloro-3-fluorophenyl)cyclopropyl]-1-(prop-2-enoyl)piperidine-4-carboxamide] | 112.843
10 | CC(Cl)C(=O)N1CCCC(CC(=O)OC(C)(C)C)CC1 (centres unmarked) [6-P18, tert-butyl 2-[1-(2-chloropropanoyl)azepan-4-yl]acetate] | 93.561
11 | C=CC(=O)NCC1CCOC1 (centres unmarked) [1-H08, N-[(oxolan-3-yl)methyl]prop-2-enamide] | 109.714
12 | O=C(CCl)Nc1ccccc1OC(F)F [4-N09, 2-chloro-N-[2-(difluoromethoxy)phenyl]acetamide] | 91.8533
13 | CCOC(=O)c1c(C)[nH]c(C(=O)CCl)c1C [10-J20, ethyl 5-(2-chloroacetyl)-2,4-dimethyl-1H-pyrrole-3-carboxylate] | 109.375
14 | N#CC(C(=O)CCl)=C1Nc2ccccc2S1 [10-J04, 4-chloro-2-(2,3-dihydro-1,3-benzothiazol-2-ylidene)-3-oxobutanenitrile] | 43.75
15 | Cc1ccc(NC(=O)N2CCN(C(=O)C=CCN(C)C)CC2)cc1 [10-H16, 4-[4-(dimethylamino)but-2-enoyl]-N-(4-methylphenyl)piperazine-1-carboxamide] | 125
16 | C=CC(=O)NCCC(=O)N1CCN(c2nc(C)cs2)CC1 [3-F07, N-{3-[4-(4-methyl-1,3-thiazol-2-yl)piperazin-1-yl]-3-oxopropyl}prop-2-enamide] | 94.7323
17 | CCC(C)n1nccc1NC(=O)C(C)Cl (centres unmarked) [6-A20, N-[1-(butan-2-yl)-1H-pyrazol-5-yl]-2-chloropropanamide] | 96.2927
18 | CC(Cl)C(=O)N(C(C)CS(C)(=O)=O)C1CC1 (centres unmarked) [6-L17, 2-chloro-N-cyclopropyl-N-(1-methanesulfonylpropan-2-yl)propanamide] | 88.439
19 | C=CC(=O)N1CCC(C(=O)Nc2[nH]nc(C(F)(F)F)c2C)CC1 [1-O04, N-[4-methyl-3-(trifluoromethyl)-1H-pyrazol-5-yl]-1-(prop-2-enoyl)piperidine-4-carboxamide] | 87.2088
20 | O=C(CCl)NCC(=O)Nc1ccc(F)c(F)c1F [4-D18, 2-chloro-N-{[(2,3,4-trifluorophenyl)carbamoyl]methyl}acetamide] | 93.7589
21 | Cc1cc(-n2c(C)cc(C=C(C#N)C(=O)NC3CCCC3)c2C)no1 [9-J15, 2-cyano-N-cyclopentyl-3-[2,5-dimethyl-1-(5-methyl-1,2-oxazol-3-yl)-1H-pyrrol-3-yl]prop-2-enamide] | 97.0787
22 | O=C(CCl)c1c(-c2ccc(F)cc2)[nH]c2ccccc12 [10-P04, 2-chloro-1-[2-(4-fluorophenyl)-1H-indol-3-yl]ethan-1-one] | 137.813

Row | SMILES | % of control remaining [%]
23 | CCOc1cc(C=C(C#N)C(=O)Nc2cccc(C)c2)ccc1O [9-G06, 2-cyano-3-(3-ethoxy-4-hydroxyphenyl)-N-(3-methylphenyl)prop-2-enamide] | 106.367
24 | N#CC(=Cc1ccc(N2CCOCC2)cc1)C(=O)Nc1ccccc1F [9-B03, 2-cyano-N-(2-fluorophenyl)-3-[4-(morpholin-4-yl)phenyl]prop-2-enamide] | 95.2809
25 | C=CC(=O)NC(C)c1nnnn1C (centres unmarked) [3-A15, N-[1-(1-methyl-1H-1,2,3,4-tetrazol-5-yl)ethyl]prop-2-enamide] | 136.526
26 | C=CC(=O)N1CCC(Cn2cnnc2)CC1 [3-P09, 1-{4-[(4H-1,2,4-triazol-4-yl)methyl]piperidin-1-yl}prop-2-en-1-one] | 96.4737
27 | CC(Cl)C(=O)N[C@H](CC(N)=O)c1cccc(Cl)c1 (stereo partly drawn) [7-O09, (3R)-3-(3-chlorophenyl)-3-(2-chloropropanamido)propanamide] | 115.542
28 | C=CCNC(=O)C(C#N)=Cc1c(C)nn(-c2ccc(F)cc2)c1Cl [9-L07, 3-[5-chloro-1-(4-fluorophenyl)-3-methyl-1H-pyrazol-4-yl]-2-cyano-N-(prop-2-en-1-yl)prop-2-enamide] | 88.0899
29 | O=C(CCl)NCc1cc([N+](=O)[O-])ccc1O [4-A05, 2-chloro-N-[(2-hydroxy-5-nitrophenyl)methyl]acetamide] | 92.6155
30 | CC(Cl)C(=O)NC1(c2noc(C(F)F)n2)CCC1 (centres unmarked) [6-B15, 2-chloro-N-{1-[5-(difluoromethyl)-1,2,4-oxadiazol-3-yl]cyclobutyl}propanamide] | 91.5122
31 | CC(Cl)C(=O)NC(=O)NCc1cccs1 (centres unmarked) [6-E05, 3-(2-chloropropanoyl)-1-[(thiophen-2-yl)methyl]urea] | 104.488
32 | O=C(CCl)NC(c1cc(F)ccc1F)C(F)F (centres unmarked) [7-F22, 2-chloro-N-[1-(2,5-difluorophenyl)-2,2-difluoroethyl]acetamide] | 96.3893
33 | O=C(CCl)NCC1CCN(C(=O)Cc2ccccc2)C1 (centres unmarked) [7-B08, 2-chloro-N-{[1-(2-phenylacetyl)pyrrolidin-3-yl]methyl}acetamide] | 91.6797
34 | Cc1ccccc1CC(C)NC(=O)CCl (centres unmarked) [6-C06, 2-chloro-N-[1-(2-methylphenyl)propan-2-yl]acetamide] | 88.0976
35 | C=CC(=O)N1CC(C)OC2(CCOCC2)C1 (centres unmarked) [3-I12, 1-{2-methyl-1,9-dioxa-4-azaspiro[5.5]undecan-4-yl}prop-2-en-1-one] | 105.529
36 | C=CC(=O)N1CCC(C(=O)N2CCCCCC2c2ccco2)CC1 (centres unmarked) [2-N20, 1-{4-[2-(furan-2-yl)azepane-1-carbonyl]piperidin-1-yl}prop-2-en-1-one] | 102.35
37 | O=C(CCl)NCC1CN(Cc2ccccc2)CCO1 (centres unmarked) [4-H18, N-[(4-benzylmorpholin-2-yl)methyl]-2-chloroacetamide] | 112.816
38 | CC(C)NC(=O)C(C#N)=Cc1ccc(Cl)cc1 [9-C09, 3-(4-chlorophenyl)-2-cyano-N-(propan-2-yl)prop-2-enamide] | 87.7903
39 | C=CC(=O)Nc1cc(C(C)(C)C)nn1-c1ncccn1 [1-E04, N-[3-tert-butyl-1-(pyrimidin-2-yl)-1H-pyrazol-5-yl]prop-2-enamide] | 115.341
40 | N#CC(=Cc1ccc(F)c(F)c1)C(=O)NC1CC1 [9-M06, 2-cyano-N-cyclopropyl-3-(3,4-difluorophenyl)prop-2-enamide] | 129.139
41 | Cc1nc(C)n(C2CCCN(C(=O)C(C)Cl)C2)n1 (centres unmarked) [7-P13, 2-chloro-1-[3-(3,5-dimethyl-1H-1,2,4-triazol-1-yl)piperidin-1-yl]propan-1-one] | 97.0173
42 | CCNC(=O)C(C#N)=Cc1c(N2CCOCC2)nc2ccccn2c1=O [9-O06, 2-cyano-N-ethyl-3-[2-(morpholin-4-yl)-4-oxo-4H-pyrido[1,2-a]pyrimidin-3-yl]prop-2-enamide] | 97.0787
43 | Cn1c(N)c(C(=O)CCl)c(=O)n(C)c1=O [10-E14, 6-amino-5-(2-chloroacetyl)-1,3-dimethyl-1,2,3,4-tetrahydropyrimidine-2,4-dione] | 101.875
44 | CCC1SC(=C(C#N)C(=O)NC)N(c2ccc(Cl)cc2)C1=O (centres unmarked) [8-L15, 2-[3-(4-chlorophenyl)-5-ethyl-4-oxo-1,3-thiazolidin-2-ylidene]-2-cyano-N-methylacetamide] | 125.477
